PubChem BioAssay AID1346428 (National Center for Advancing Translational Sciences (NCATS), 2018)
Values joined by “and” are separate entries in the source; they are usually repeats but may differ in a detail not shown here. Equal values may be shown once. Out of some 48,000 compounds screened, about 1,200 (2.5%) were called active. Roughly 2% stayed inconclusive and do not appear here.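 The calls were made as follows: active = activation of at least 60% and not above a set upper limit (about 1 call in 100 departs from these limits); inconclusive = activation of 40% to 60%, or above that upper limit; inactive = activation under 40%.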 This is one part of the list. Some structures have more than one record in an assay (separate samples or runs), and their calls can disagree.

The molecules below were run against Probable G-protein coupled receptor 32 (Homo sapiens) (UniProt O75388) (assay: qHTS for Agonists of Human Resolvin D1 Receptor DRV1). Conditions: CHO-K1 GPR32 beta-arrestin PathHunter luminescence, 90 min; at 76.9 µM; stronger effect = higher value; zero percent set by DMSO-only wells.
Chain of UniProt O75388 (O75388 whole entry, looked up): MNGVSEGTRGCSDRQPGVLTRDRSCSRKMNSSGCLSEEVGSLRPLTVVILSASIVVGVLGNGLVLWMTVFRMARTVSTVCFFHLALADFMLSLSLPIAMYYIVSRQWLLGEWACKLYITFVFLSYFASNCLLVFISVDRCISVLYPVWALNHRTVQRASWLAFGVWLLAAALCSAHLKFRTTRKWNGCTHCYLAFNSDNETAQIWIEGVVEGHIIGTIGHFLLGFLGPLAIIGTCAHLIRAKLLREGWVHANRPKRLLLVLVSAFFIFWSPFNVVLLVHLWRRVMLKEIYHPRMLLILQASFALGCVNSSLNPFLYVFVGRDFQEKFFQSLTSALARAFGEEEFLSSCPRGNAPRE
Method in brief: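 CHO-K1 cells stably expressing ProLink-tagged GPR32 and Enzyme Activator-tagged beta-arrestin were seeded at 2,500 cells/well overnight, exposed to compounds for 90 min at 37 °C, then read by beta-Gal complementation chemiluminescence after 1 h detection reagent.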
Also: 0% is about no effect.

| SMILES | activation |
| --- | --- |
| C[C@@H](N)Cc1cnc[nH]1 | inactive: 2.3% |
| CCCN1CCC[C@@H]2Cc3[nH]ncc3C[C@H]21 | inactive: 5.75% and inactive: -3.72% and inactive: -15.4% |
| Cc1ccccc1CN1C(=O)C(C)N=C(c2ccccc2)c2ccccc21 (configuration not stated) | inactive: -24% |
| [N-]=[N+]=CC(=O)OC[C@H](N)C(=O)O | inactive: 1.29% |
| CCN(CC)Cc1nccn1-c1ccc([N+](=O)[O-])cc1C(=O)c1ccccc1Cl | inactive: -14.5% |
| COP(=S)(OC)Oc1ccc(S(N)(=O)=O)cc1 | inactive: -39.5% |
| COc1cccc2c1C(=O)c1c(O)c3c(c(O)c1C2=O)C[C@@](O)(C(=O)CO)CC3OC1CC(N2CCOC(OC)C2)C(O)C(C)O1 (some centres not stated) | inactive: -51.6% |
| O=C(O)CCCCCCNC1c2ccccc2CCc2ccccc21 | inactive: 4.18% |
| CCOc1ccc(CN(CCc2ccc3c(c2)OCO3)Cc2ccc(OC)c(Br)c2)cc1 | inactive: -21.9% |
| CCOc1ccc2nc(NC(=O)c3cccn(Cc4ccccc4Cl)c3=O)sc2c1 | inactive: 4.31% |
| COc1ccc(Cc2nccc3cc(OC)c(OC)cc23)cc1OC | active: 119% and inactive: 15.7% |
| COc1cccc(NC(=O)c2cccn(Cc3ccccc3C)c2=O)c1 | inactive: 14.3% |
| COc1ccccc1C1SCC(=O)Nc2c1c(C)nn2-c1cccc(C)c1 (configuration not stated) | inactive: 7.15% |
| Cc1ccc(Cn2cccc(C(=O)Nc3ccc4c(c3)OCCO4)c2=O)cc1 | inactive: 1.86% |
| C[C@H](CN1CCOCC1)C(C(=O)N1CCCC1)(c1ccccc1)c1ccccc1 | inactive: 17.3% |
| Cc1ccc(-c2nc(CN3C(=O)CN=C(c4ccccc4)c4ccccc43)c(C)o2)cc1 | inactive: -17.9% |
| CCN(CC)C(=O)c1ccc(NC(=O)c2ccc(-c3nn(C)c(=O)c4ccccc34)cc2)cc1 | inactive: 9.41% |
| CCC1(CC)C(=O)C=CNC1=O | inactive: -10.6% |
| CNCCc1c[nH]c2ccc(O)cc12 | inactive: 2.09% |
| NCCCP(=O)(O)O | inactive: -0.767% |
| O=C(N/N=C/c1ccc([N+](=O)[O-])o1)c1cc([N+](=O)[O-])cc([N+](=O)[O-])c1O | inactive: -36% |
| Cc1ccc(-c2nn3c(=O)cc(CN4CCN(C(=O)COc5ccc(C)c(C)c5)CC4)nc3s2)cc1 | inactive: -7.97% |
| COc1ccc(Br)cc1C1SCC(=O)Nc2c1c(C)nn2-c1ccccc1C (configuration not stated) | inactive: -11.9% |
| CCCC1=Nc2cc(C(=O)NCCCN(CC)CC)ccc2Sc2ccccc21 | inactive: 15.4% |

| SMILES | activation |
| --- | --- |
| COC(=O)[C@@H](N)CCCN=C(N)N[N+](=O)[O-] | inactive: -2.97% |
| NNC(=O)c1ccc(O)cc1 | inactive: 4.55% |
| CCCC12CN3CC(C)(CN(C1)C3c1c(C)[nH]c(=O)[nH]c1=O)C2=O (configuration not stated) | inactive: 1.45% |
| C[C@]12CC[C@H]3[C@@H](CC[C@@]45O[C@H]4C(O)=C(C#N)C[C@]35C)[C@H]1CC[C@H]2O | inactive: -7.27% |
| CC(C)(C)NCC(O)c1cc(Cl)c(N)c(Cl)c1 (configuration not stated) | inactive: 6.55% |
| Fc1ccc(C(OCCN2CCN(CCCc3ccccc3)CC2)c2ccc(F)cc2)cc1 | inactive: -4.67% and inactive: -13.9% |
| N[C@@H](CCl)C(=O)O | inactive: 0.662% |
| CN(C)c1ccc(NC(=O)c2sc3nc4c(cc3c2N)N2CCC4CC2)cc1 | inactive: 3.69% |
| C=C(C)[C@H]1Cc2c(ccc3c2O[C@@H]2COc4cc(OC)c(OC)cc4[C@@H]2C3=O)O1 | inactive: 20.9% and inactive: 34.9% |
| COC(=O)C1=CCCN(C)C1 | inactive: 9.51% and inactive: -2.45% |
| Cc1c(C(c2ccc(Br)cc2)c2c(O)c3ccccc3oc2=O)c(=O)n(-c2ccccc2)n1C (configuration not stated) | inactive: 0.698% |
| Cc1ccc(Cn2cccc(C(=O)Nc3cc(C)on3)c2=O)cc1 | inactive: 29.6% |
| NNC(N)=O | inactive: -1.16% |
| O=C(NC(=O)c1c(F)cccc1F)Nc1cc(Cl)c(OC(F)(F)C(F)C(F)(F)F)cc1Cl (configuration not stated) | inactive: -3.94% |
| Cc1ccccc1-n1c(/C=C/c2c(C)[nH]c3ccccc23)nc2ccccc2c1=O | inactive: -28.1% |
| CNCC(=O)c1ccc(O)c(O)c1 | inactive: -8.99% |
| COc1ccc(OCC(=O)N2CCN(CCc3ccncc3)CC2)cc1 | inactive: -15% |
| CC1=C2[C@H]3OC(=O)[C@@H](C)[C@@H]3CC[C@@]2(C)C=CC1=O | inactive: -0.399% |
| COP(=S)(OC)SCN1C(=O)c2ccccc2C1=O | inactive: -3.01% |
| C1CN2CCC1CC2 | inactive: 15.1% |
| Cc1ccccc1OCC(=O)N1CCN(CCc2ccccn2)CC1 | inactive: 10.8% |
| c1ccc(C2(c3ccccc3)CC2C2=NCCN2)cc1 (configuration not stated) | inactive: -6.28% |
| CCCN(CCC)C1CCc2ccc(O)cc2C1 (configuration not stated) | inactive: 15.7% |
